The supplement of paper PMC10369915
The other results are listed elsewhere or left out. Cut-off read from the data, not from the text of the source: active = 3.2 or more and inactive = the rest. Most of these values are background signal.

Tests used:
Assay in all cases: enrichment score (SH2-bound / input frequency) (ratio); bacterial display of known human phosphotyrosine sites (pTyr-Var adds point mutants) read by sequencing; higher = stronger binding; tyrosines were phosphorylated by kinases first
Settings in all cases: peptide library: pTyr-Var
SHP2 C-SH2 domain E139D = biological target: SHP2 C-SH2 domain E139D
[1] = biological target: SHP2 C-SH2 domain wild-type
SHP2 N-SH2 domain L43F = biological target: SHP2 N-SH2 domain L43F
SHP2 N-SH2 domain T42A = biological target: SHP2 N-SH2 domain T42A
SHP2 N-SH2 domain T52S = biological target: SHP2 N-SH2 domain T52S
[2] = biological target: SHP2 N-SH2 domain wild-type

Measured: enrichment score
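Note: displayed peptides selected on beads carrying the immobilized SH2 domain, with library peptides lacking any tyrosine serving as negative controls.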

SVTCTFSPALN [TP53_Y126_Y126F]
inactive: SHP2 C-SH2 domain E139D 1.1 | [1] 1.44 | SHP2 N-SH2 domain L43F 1.13 | SHP2 N-SH2 domain T42A 0.881 | SHP2 N-SH2 domain T52S 0.803 | [2] 1.69

SVTCTGSPALN [TP53_Y126_Y126G]
inactive: SHP2 C-SH2 domain E139D 0.766 | [1] 0.765 | SHP2 N-SH2 domain L43F 0.635 | SHP2 N-SH2 domain T42A 0.685 | SHP2 N-SH2 domain T52S 0.634 | [2] 1.02

SVVVPYEPPEV [TP53_Y220]
inactive: SHP2 C-SH2 domain E139D 1.12 | [1] 0.822 | SHP2 N-SH2 domain L43F 0.875 | SHP2 N-SH2 domain T42A 0.874 | SHP2 N-SH2 domain T52S 1.06 | [2] 0.953

SVVVPYDPPEV [TP53_Y220_E221D]
inactive: SHP2 C-SH2 domain E139D 0.863 | [1] 0.797 | SHP2 N-SH2 domain L43F 0.886 | SHP2 N-SH2 domain T42A 0.824 | SHP2 N-SH2 domain T52S 0.594 | [2] 0.901

SVVVPYKPPEV [TP53_Y220_E221K]
inactive: SHP2 C-SH2 domain E139D 1.06 | [1] 0.837 | SHP2 N-SH2 domain L43F 0.871 | SHP2 N-SH2 domain T42A 0.769 | SHP2 N-SH2 domain T52S 0.835 | [2] 0.864

SVVVPYQPPEV [TP53_Y220_E221Q]
inactive: SHP2 C-SH2 domain E139D 1.47 | [1] 0.903 | SHP2 N-SH2 domain L43F 1.04 | SHP2 N-SH2 domain T42A 0.793 | SHP2 N-SH2 domain T52S 1.03 | [2] 1.1

SVVVPYEPPGV [TP53_Y220_E224G]
inactive: SHP2 C-SH2 domain E139D 0.727 | [1] 0.832 | SHP2 N-SH2 domain L43F 0.715 | SHP2 N-SH2 domain T42A 0.711 | SHP2 N-SH2 domain T52S 0.772 | [2] 0.78

SVVVHYEPPEV [TP53_Y220_P219H]
inactive: SHP2 C-SH2 domain E139D 0.911 | [1] 0.987 | SHP2 N-SH2 domain L43F 0.987 | SHP2 N-SH2 domain T42A 1 | SHP2 N-SH2 domain T52S 0.874 | [2] 0.757

SVVVLYEPPEV [TP53_Y220_P219L]
inactive: SHP2 C-SH2 domain E139D 1.19 | [1] 1.01 | SHP2 N-SH2 domain L43F 1.28 | SHP2 N-SH2 domain T42A 1.01 | SHP2 N-SH2 domain T52S 1.09 | [2] 1.16

SVVVPYEQPEV [TP53_Y220_P222Q]
inactive: SHP2 C-SH2 domain E139D 0.738 | [1] 0.862 | SHP2 N-SH2 domain L43F 0.884 | SHP2 N-SH2 domain T42A 0.723 | SHP2 N-SH2 domain T52S 0.693 | [2] 0.806

SVVVPYERPEV [TP53_Y220_P222R]
inactive: SHP2 C-SH2 domain E139D 0.899 | [1] 0.8 | SHP2 N-SH2 domain L43F 0.86 | SHP2 N-SH2 domain T42A 0.682 | SHP2 N-SH2 domain T52S 0.87 | [2] 0.824

SVVVPYESPEV [TP53_Y220_P222S]
inactive: SHP2 C-SH2 domain E139D 0.842 | [1] 0.775 | SHP2 N-SH2 domain L43F 0.872 | SHP2 N-SH2 domain T42A 0.68 | SHP2 N-SH2 domain T52S 0.977 | [2] 0.953

SVVVPYEPHEV [TP53_Y220_P223H]
inactive: SHP2 C-SH2 domain E139D 0.77 | [1] 0.811 | SHP2 N-SH2 domain L43F 0.852 | SHP2 N-SH2 domain T42A 0.582 | SHP2 N-SH2 domain T52S 0.807 | [2] 0.907

SVVVPYEPLEV [TP53_Y220_P223L]
inactive: SHP2 C-SH2 domain E139D 0.816 | [1] 0.665 | SHP2 N-SH2 domain L43F 0.77 | SHP2 N-SH2 domain T42A 0.826 | SHP2 N-SH2 domain T52S 0.687 | [2] 0.999

SVVVPYEPSEV [TP53_Y220_P223S]
inactive: SHP2 C-SH2 domain E139D 0.772 | [1] 0.865 | SHP2 N-SH2 domain L43F 0.786 | SHP2 N-SH2 domain T42A 0.681 | SHP2 N-SH2 domain T52S 0.746 | [2] 0.808

GVVVPYEPPEV [TP53_Y220_S215G]
inactive: SHP2 C-SH2 domain E139D 0.847 | [1] 0.604 | SHP2 N-SH2 domain L43F 0.905 | SHP2 N-SH2 domain T42A 0.799 | SHP2 N-SH2 domain T52S 0.845 | [2] 0.877

IVVVPYEPPEV [TP53_Y220_S215I]
inactive: SHP2 C-SH2 domain E139D 1.21 | [1] 0.971 | SHP2 N-SH2 domain L43F 1.06 | SHP2 N-SH2 domain T42A 0.956 | SHP2 N-SH2 domain T52S 0.882 | [2] 1.03

SWVVPYEPPEV [TP53_Y220_V216W]
inactive: SHP2 C-SH2 domain E139D 1.23 | [1] 1.06 | SHP2 N-SH2 domain L43F 1.14 | SHP2 N-SH2 domain T42A 1.08 | SHP2 N-SH2 domain T52S 1.07 | [2] 1.1

SVEVPYEPPEV [TP53_Y220_V217E]
inactive: SHP2 C-SH2 domain E139D 0.636 | [1] 0.617 | SHP2 N-SH2 domain L43F 0.568 | SHP2 N-SH2 domain T42A 0.605 | SHP2 N-SH2 domain T52S 0.631 | [2] 0.61

SVIVPYEPPEV [TP53_Y220_V217I]
inactive: SHP2 C-SH2 domain E139D 0.819 | [1] 0.877 | SHP2 N-SH2 domain L43F 0.866 | SHP2 N-SH2 domain T42A 0.805 | SHP2 N-SH2 domain T52S 0.77 | [2] 0.881

SVMVPYEPPEV [TP53_Y220_V217M]
inactive: SHP2 C-SH2 domain E139D 0.914 | [1] 0.71 | SHP2 N-SH2 domain L43F 0.843 | SHP2 N-SH2 domain T42A 0.677 | SHP2 N-SH2 domain T52S 0.722 | [2] 0.808

SVVAPYEPPEV [TP53_Y220_V218A]
inactive: SHP2 C-SH2 domain E139D 0.707 | [1] 0.631 | SHP2 N-SH2 domain L43F 0.6 | SHP2 N-SH2 domain T42A 0.512 | SHP2 N-SH2 domain T52S 0.579 | [2] 0.904

SVVGPYEPPEV [TP53_Y220_V218G]
inactive: SHP2 C-SH2 domain E139D 0.656 | [1] 0.576 | SHP2 N-SH2 domain L43F 0.682 | SHP2 N-SH2 domain T42A 0.443 | SHP2 N-SH2 domain T52S 0.628 | [2] 0.687

SVVVPYEPPEG [TP53_Y220_V225G]
inactive: SHP2 C-SH2 domain E139D 0.814 | [1] 0.717 | SHP2 N-SH2 domain L43F 0.825 | SHP2 N-SH2 domain T42A 0.612 | SHP2 N-SH2 domain T52S 0.805 | [2] 0.795

SVVVPYEPPEI [TP53_Y220_V225I]
inactive: SHP2 C-SH2 domain E139D 0.888 | [1] 0.821 | SHP2 N-SH2 domain L43F 0.973 | SHP2 N-SH2 domain T42A 0.713 | SHP2 N-SH2 domain T52S 0.95 | [2] 0.867

SVVVPYEPPEL [TP53_Y220_V225L]
inactive: SHP2 C-SH2 domain E139D 0.703 | [1] 0.642 | SHP2 N-SH2 domain L43F 0.671 | SHP2 N-SH2 domain T42A 0.698 | SHP2 N-SH2 domain T52S 0.691 | [2] 0.694

SVVVPSEPPEV [TP53_Y220_Y220S]
inactive: SHP2 C-SH2 domain E139D 0.573 | [1] 0.678 | SHP2 N-SH2 domain L43F 0.799 | SHP2 N-SH2 domain T42A 0.661 | SHP2 N-SH2 domain T52S 0.849 | [2] 0.761

NTTIHYNYMCN [TP53_Y234_C229N]
inactive: SHP2 C-SH2 domain E139D 0.869 | [1] 0.891 | SHP2 N-SH2 domain L43F 0.743 | SHP2 N-SH2 domain T42A 0.786 | SHP2 N-SH2 domain T52S 0.759 | [2] 0.867

RTTIHYNYMCN [TP53_Y234_C229R]
inactive: SHP2 C-SH2 domain E139D 0.809 | [1] 0.922 | SHP2 N-SH2 domain L43F 0.905 | SHP2 N-SH2 domain T42A 0.831 | SHP2 N-SH2 domain T52S 0.826 | [2] 1.08

STTIHYNFMCN [TP53_Y234_C229S_YF]
inactive: SHP2 C-SH2 domain E139D 1.28 | [1] 1.2 | SHP2 N-SH2 domain L43F 1.11 | SHP2 N-SH2 domain T42A 0.98 | SHP2 N-SH2 domain T52S 1.09 | [2] 1.28

CTTIHYNYMFN [TP53_Y234_C238F]
inactive: SHP2 C-SH2 domain E139D 1.63 | [1] 1.81 | SHP2 N-SH2 domain L43F 1.46 | SHP2 N-SH2 domain T42A 1.87 | SHP2 N-SH2 domain T52S 1.48 | [2] 1.59

CTTIHYNFMFN [TP53_Y234_C238F_YF]
inactive: SHP2 C-SH2 domain E139D 2.6 | [1] 2.71 | SHP2 N-SH2 domain L43F 2.67 | SHP2 N-SH2 domain T42A 2.47 | SHP2 N-SH2 domain T52S 2.18 | [2] 2.73

CTTIHYNYMGN [TP53_Y234_C238G]
inactive: SHP2 C-SH2 domain E139D 1.42 | [1] 1.72 | SHP2 N-SH2 domain L43F 1.2 | SHP2 N-SH2 domain T42A 1.39 | SHP2 N-SH2 domain T52S 1.55 | [2] 1.26

CTTIHYNFMHN [TP53_Y234_C238H_YF]
inactive: SHP2 C-SH2 domain E139D 2.49 | [1] 2.29 | SHP2 N-SH2 domain L43F 1.99 | SHP2 N-SH2 domain T42A 1.8 | SHP2 N-SH2 domain T52S 2.23 | [2] 2.08

CTTIHYNFMRN [TP53_Y234_C238R_YF]
inactive: SHP2 C-SH2 domain E139D 1.97 | [1] 1.97 | SHP2 N-SH2 domain L43F 1.73 | SHP2 N-SH2 domain T42A 1.76 | SHP2 N-SH2 domain T52S 1.81 | [2] 1.77

CTTIHYNYMWN [TP53_Y234_C238W]
inactive: SHP2 C-SH2 domain E139D 1.47 | [1] 1.8 | SHP2 N-SH2 domain L43F 1.28 | SHP2 N-SH2 domain T42A 1.38 | SHP2 N-SH2 domain T52S 1.46 | [2] 1.61

CTTIHYNFMWN [TP53_Y234_C238W_YF]
inactive: SHP2 C-SH2 domain E139D 2.08 | [1] 2.44 | SHP2 N-SH2 domain L43F 1.97 | SHP2 N-SH2 domain T42A 1.85 | SHP2 N-SH2 domain T52S 2.27 | [2] 2.3
